Assay results published in PubChem BioAssay AID1460 (National Center for Advancing Translational Sciences (NCATS), 2008).
Screen size: about 270,000 compounds; about 5,800 (2.1%) were called active. Inconclusive results, whose numbers are uncertain, are shown with a selection of clear calls. Calls follow the shape of the dose curve; as a rule, active = well fitted inhibition curve with a large enough effect; inconclusive = small, poorly fitted or top-dose-only effect; inactive = flat fitted curve, though single readings scatter. A potency beside an inconclusive call is a rough fit, not a confirmed value.

Each compound was assayed against Microtubule-associated protein tau (Homo sapiens) (UniProt P10636) (assay: qHTS for Inhibitors of Tau Fibril Formation, Thioflavin T Binding). Settings: recombinant tau K18 P301L (four-repeat tau fragment), heparin-induced fibrillization, ThT fluorescence; series mostly up to 57.4 µM.
Outline: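 In this qHTS, human K18 P301L tau is incubated with compound and heparin for 6 hr at 37 C, and Thioflavin T fluorescence then reports fibril load.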
% is scaled to controls: 0 for no effect and ±100 for the full control effect; potency is read from the fitted curve at half-maximal effect; tags tell the direction and shape of the fitted curve.
Also: nearly all actives have a fitted effect of over 55% in size.

UniProt P10636, sequence (P10636 whole entry, looked up, the tested form may be a part): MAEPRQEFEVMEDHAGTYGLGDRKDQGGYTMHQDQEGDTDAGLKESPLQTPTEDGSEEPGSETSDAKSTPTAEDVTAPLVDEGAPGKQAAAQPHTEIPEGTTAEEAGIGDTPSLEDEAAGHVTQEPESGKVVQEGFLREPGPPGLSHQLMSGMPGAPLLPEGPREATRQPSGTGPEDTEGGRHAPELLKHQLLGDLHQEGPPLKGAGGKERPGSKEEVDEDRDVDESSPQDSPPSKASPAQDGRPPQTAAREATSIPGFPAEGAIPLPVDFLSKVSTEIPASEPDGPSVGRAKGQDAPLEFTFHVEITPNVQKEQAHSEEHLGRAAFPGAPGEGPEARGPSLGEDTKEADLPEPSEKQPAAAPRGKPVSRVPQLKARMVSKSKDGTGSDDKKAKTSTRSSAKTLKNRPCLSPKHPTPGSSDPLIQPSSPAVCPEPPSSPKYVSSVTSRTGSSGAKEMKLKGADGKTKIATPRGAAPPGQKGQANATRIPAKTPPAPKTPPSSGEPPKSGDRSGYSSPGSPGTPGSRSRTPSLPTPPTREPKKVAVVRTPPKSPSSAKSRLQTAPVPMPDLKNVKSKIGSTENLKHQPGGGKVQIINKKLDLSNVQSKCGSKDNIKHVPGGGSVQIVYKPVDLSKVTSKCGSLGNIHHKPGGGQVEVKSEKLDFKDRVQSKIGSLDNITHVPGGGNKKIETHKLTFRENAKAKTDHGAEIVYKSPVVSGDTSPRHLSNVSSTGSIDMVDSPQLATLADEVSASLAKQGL

Compound	Potency	activity, negative = inhibition
COc1ccc(OCc2nn3c(-c4ccccn4)nnc3s2)cc1	inconclusive: 28.2 µM [inhibitor, single point]	
COC(=O)C/C=C\[C@@H](C)[C@@H](/C=N\O[C@@H](C)c1cc(-c2c(C)cc(C)cc2C)no1)OC		inactive: -12.4% [at 11.5 µM]
CC(C)(C)c1ccc(O)c(N=Cc2cc(Br)ccc2O)c1	inconclusive: 20 µM [inhibitor, partial curve, poor fit]	
O=C(CCn1c(=O)oc2ccccc21)Nc1ccccc1	inconclusive: 44.7 µM [inhibitor, single point]	
CCCCCCOc1ccc(OC(=O)c2cccnc2)cc1	inconclusive: 31.6 µM [inhibitor, single point]	
CSc1nc2ccccc2n1Cc1cccc([N+](=O)[O-])c1	inconclusive: 0.891 µM [activator, full curve, poor fit]	
Cc1cc(C)cc(C(=O)N(C)[C@H](Cc2ccc(-c3ccccc3)cc2)C(=O)N[C@@H](Cc2c[nH]c3ccccc23)C(=O)O)c1	inconclusive: 28.2 µM [inhibitor, partial curve]	
Cc1ccc(OCC(=O)c2ccc3c(c2)CCCC3)cc1C	inconclusive: 7.08 µM [inhibitor, partial curve]	
COc1ccccc1CNC(=O)C(=O)NCC(c1cccs1)S(=O)(=O)c1ccc(F)cc1 (stereo unspecified)	inactive	
CCOC(=O)c1c(-c2ccccc2)[nH]c2ccc(O)cc12	inconclusive: 15.8 µM [inhibitor, partial curve]	
Nc1nc(-c2ccc(Cl)cc2)cn1N	inconclusive: 17.8 µM [inhibitor, partial curve]	
COc1ccc(OCCCC(=O)Nc2cccc([N+](=O)[O-])c2)cc1	inconclusive: 15.8 µM [inhibitor, partial curve, poor fit]	
Cc1csc2nc(COC(=O)c3ccc(NC(=O)COc4ccccc4F)cc3)cc(=O)n12	inactive	
CCCCn1c(=O)n(-c2ccc(Br)cc2F)c(=O)c2c3c(sc21)CN(C(C)=O)CC3	inactive	
COC(=O)c1cnn(C(=O)c2cc(OC)ccc2Br)c1N	inactive	
COc1cc(C(=O)Nc2ccc3nn(-c4ccc(F)cc4)nc3c2)cc(OC)c1OC	inconclusive: 0.708 µM [inhibitor, full curve]	
Cc1cc(/C=C2\SC(N)=NC2=O)c(C)n1-c1ccc(F)cc1	inconclusive: 28.2 µM [inhibitor, partial curve]	
Brc1ccc(-c2nc(-c3ccccc3)no2)o1	inconclusive: 20 µM [inhibitor, partial curve, poor fit]	
CCOC(=O)c1noc2nc(C)n(CC(=O)Nc3cc(Cl)ccc3OC)c(=O)c12	inactive	
CC(=O)c1cc(NC(=O)c2cccc(C(F)(F)F)c2)c(=O)oc1/C=C/N(C)C	inconclusive: 7.94 µM [inhibitor, partial curve]	
CCCOc1ccc(N2C(=O)CC(N(C(=O)c3ccco3)c3ccc(OCCC)cc3)C2=O)cc1 (stereo unspecified)	inconclusive: 25.1 µM [inhibitor, partial curve]	

Compound	Potency	activity, negative = inhibition
O=C1NC(c2ccc(-c3ccccc3[N+](=O)[O-])o2)C(C(=O)c2ccc(F)cc2)C(O)(C(F)(F)F)N1 (stereo unspecified)	inconclusive: 20 µM [inhibitor, single point]	
Cn1c(Cl)c(/C=N/OC(=O)c2ccc(Cl)cc2)c2ccccc21	inconclusive: 10 µM [inhibitor, partial curve]	
CCOC(=O)N/N=C(\C)c1ccc(-n2cnnn2)cc1	inconclusive: 12.6 µM [inhibitor, partial curve]	
CCc1ccc(NC(=O)CC2C(=O)N(c3cccc(C)c3)C(=O)N2Cc2cccs2)cc1 (stereo unspecified)	inactive	
CC(NS(=O)(=O)c1ccc(OCC(=O)Nc2cccc([N+](=O)[O-])c2)cc1)c1ccccc1 (stereo unspecified)	inconclusive: 44.7 µM [inhibitor, single point]	
CCCCCc1cc(=O)oc2c(C(CCN3CCCC(C)C3)c3ccc(OC)cc3)c(OC)cc(OC)c12 (stereo unspecified)	inconclusive: 39.8 µM [inhibitor, single point]	
CCCOc1ccc(C(=O)NC(=S)NNC(=O)c2c(-c3ccccc3)noc2C)cc1	inconclusive: 11.2 µM [inhibitor, partial curve, poor fit]	
COC(=O)[C@]1(C)CCC[C@]2(C)c3ccc(C(C)C)cc3C(=O)CC12 (stereo partly specified)	inconclusive: 12.6 µM [inhibitor, partial curve, poor fit]	
Cc1cc(C)c2c(N=NN(C)C)[nH]nc2n1	inconclusive: 15.8 µM [inhibitor, single point]	
O=C(Nc1ccc(Nc2ccncc2)cc1)c1ccc([N+](=O)[O-])cc1	inconclusive: 12.6 µM [inhibitor, partial curve]	
O=C(Nc1cc(C(F)(F)F)ccc1Cl)C(Sc1nnc(-c2cccs2)o1)c1ccccc1 (stereo unspecified)	inconclusive: 10 µM [inhibitor, partial curve]	
COc1cc(/C=C2\SC(=S)N(NS(=O)(=O)c3ccc(C)cc3)C2=O)cc(OC)c1OC	inconclusive: 14.1 µM [inhibitor, partial curve]	
Cc1nnc(NC(=O)C2CCCN2S(=O)(=O)c2ccc(Cl)cc2)s1 (stereo unspecified)	inactive	
Cc1c(C=O)n(C)n(-c2ccccc2)c1=O	inactive	
COc1ccc(-c2nnc(SCC(=O)Nc3cccc(F)c3)s2)cc1	inconclusive: 1.41 µM [inhibitor, full curve]	
CCN(CC)CCCN(C(=O)Cn1nnc(-c2ccc(OC)c(OC)c2)n1)C(C(=O)NC(C)(C)C)c1ccc(F)cc1 (stereo unspecified)	inactive	
CCOc1ccccc1NC(=O)C(C)Sc1cc(-c2ccccc2)nc(C)n1 (stereo unspecified)	inconclusive: 22.4 µM [inhibitor, single point]	
Cc1ccc(NCc2cccn2-c2nnc(N3CCCCCC3)s2)cc1	inconclusive: 15.8 µM [inhibitor, partial curve]	
COc1ccc2sc(C)[n+](C)c2c1	inconclusive: 20 µM [inhibitor, partial curve]	
COc1ccc(CNC(=O)CSc2nnc(-c3ccc(NC(C)=O)cc3)n2C)cc1	inactive	
